± gives the standard deviation of the averaged measurements. The full ranking holds about 4,000 sequences; the median of “arbitrary fluorescence units” is about 830, and the highest 2% start at about 6,500. Most of the strongest results are missing from this list.
Biological target: RUNX1 (UniProt Q01196)
Test: RUNX1 binding intensity (PBM fluorescence), RUNX1 alone (arbitrary fluorescence units); higher = stronger binding
Details: RUNX1 concentration 2 nM; ETS1 concentration 0 nM
Protocol: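 gcPBM on 36-bp genomic-derived probes (partner site mutated) containing one RUNX1 site and no ETS1 site. Recombinant human RUNX1 (2 nM) was incubated alone or with ETS1 (25 nM) and detected by anti-RUNX1 antibody fluorescence. Values are medians over 4 replicate spots (not normalised). The probes sit in constant array flanks that are not printed.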
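Also: Full-length recombinant human RUNX1 bound to double-stranded DNA microarray spots, detected with an Alexa488-labelled secondary antibody after the anti-RUNX1 primary, read as scanned spot fluorescence.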

UniProt Q01196, sequence (Q01196 whole entry): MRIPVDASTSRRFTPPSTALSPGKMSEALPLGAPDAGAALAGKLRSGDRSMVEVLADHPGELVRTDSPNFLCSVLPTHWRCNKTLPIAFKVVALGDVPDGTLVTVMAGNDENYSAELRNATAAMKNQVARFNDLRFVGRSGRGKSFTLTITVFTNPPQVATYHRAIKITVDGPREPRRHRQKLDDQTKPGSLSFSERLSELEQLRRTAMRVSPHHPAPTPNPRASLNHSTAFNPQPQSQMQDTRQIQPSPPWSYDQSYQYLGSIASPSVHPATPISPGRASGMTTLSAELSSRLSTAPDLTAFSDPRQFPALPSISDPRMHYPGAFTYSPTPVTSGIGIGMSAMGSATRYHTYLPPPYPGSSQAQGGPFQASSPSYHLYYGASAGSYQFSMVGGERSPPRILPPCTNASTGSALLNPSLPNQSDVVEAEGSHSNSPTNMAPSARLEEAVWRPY

Row | Sequence | RUNX1 binding intensity
1 | AACAAACCTGATGGGGTTGCCACCCGCAATCTTGTC | 883
2 | CCTGCACTTGGCCGCAGCCAGCTTGTTCCTCTCGCA | 1000
3 | AGGAGCCCACAGCCCTGGGAGTGTTTACTGTTTGCC | 826
4 | GCTCTGACCGCTCTGCCGCGCGCCTGAAGCAGCCTG | 822
5 | CTCATAACCGCTAACTCAACCTCTAACATTTGCTGT | 3220
6 | CTCTGGGAGGCCGCAGCTTTCCACCGAAAAGAGGGT | 829
7 | ATCTTACCCCGGGAATGACAACAGTGCCGCAAACTG | 759
8 | GGGGATGCGGGTCGGGAGGTAGTGCCGGGTGCGCGG | 722
9 | GGAGCAGAGACCGCGATTACTCAACAGTAAAGAGAG | 776
10 | GCGCTGCGGGGATTAGGAGGGCGCTTACGGTGGCGG | 725
11 | CGCCCCGGCAACCGCCCACGTCCTGGGGCCAGGCCT | 928
12 | CAGGGACGTTCGAACTGGGCGGGGCCCACCGCAGTT | 672
13 | TTGTTGTGGTTCTACGTCACGTGGTCCCGGGAGTTC | 1220
14 | ACCCCGAAAGTGTGGGCGCGGCTGCGGTTTAACCCG | 7200
15 | GCCGAGCCAGCGGTTTCGCATCTGCACTTTCGCCAC | 941
16 | CAGTCAGACGGGAGCCCGGCTTCTGTGGTGCCTGCC | 696
17 | CGAACGCCGGGCGTTCTGGGCACGTGACCGCCACCC | 787
18 | CGGCCTGTGCGGGGAGTTTAGGGAGGTGGCAGGGTG | 828
19 | CGCCGGTCCCATCTCCTTTCTGCGGGGTGAGCAGCA | 1030
20 | ACCCCTGCGGGTCCTGTGCCTGGCGGGCTTCAGGCA | 692
21 | AGAACTGTGGTATGCGCAAACCATTACAGGGTGTGA | 786
22 | GTGAGACAAGACCACAGGCCACATTGCCTCTAAGTA | 908
23 | GACGCAGCATGAGGTGGAGGTGTAGAATGTGGTGCT | 760
24 | AAAGTAGGTCCAGTCCGCGGGTGCGGTCGGGCATGC | 777 ± 13

Row | Sequence | RUNX1 binding intensity
25 | CTGCGTTGCCTCTGAGTTTTGCATGTTGAGGTTGGA | 811
26 | TGGGACTCTCAGCCGCAGAAGGCAGGCAATAGTGGC | 773
27 | CCACCATCTTTCAGGCTCCCTCGCGACCACCACGAC | 1280
28 | ACCTTGCTGGCCCTGGGAGCTGGTTTGAGGTTGCAG | 702
29 | TGGCGTTGGCGGTCTTGGCATGGGGCTGCCTCTGGG | 684
30 | TACCGCTGCTCCCTGCCTGCGCGGTGAGCCTGTGCC | 768
31 | TGAACTCCGCCCACCGCGATCCGGAGGCCTAGCGCC | 885
32 | CAACCGAAGTAACCCGCAATGCGGAGGGGCGAGGGG | 885
33 | GCGCTCCCCGGCGTGCCCCGCGCTGCGGCCTGAAGG | 806
34 | AAGTTCTTTCGGGTCTGCAGTCTGTGGTGTGTTTGC | 787
35 | TAAACTACGTCTCCCAGAAGGCTGTGGGATTGCGTC | 706
36 | CTTGTTCTATCTCCTGTTTGTGGTGAGTGACTGTCT | 1370
37 | GGCTTTACGTTCAAGGATCTTTTTGCGGTCTTTGTC | 1310
38 | GACTGCGCCGGGCGCGCCAGCCCTGCGGGATGACGT | 781
39 | GGGAGGTCACCTCCTGCCCGCGGTCTCAGAAAAGCT | 793
40 | GGGGAGGACGCGGAGGAGGAGCTGTGGGAAGGGGGA | 847
41 | GCGCACCCGGGTCACGCTAACGCCGCGGTCTCCTCC | 689
42 | CTCTCAATTCCCGTGTGAGAAAAACCACAGAAAAGC | 2620
43 | AGGAGAACTGCCGCCCTTACTATATTACCGCCGGTA | 792
44 | AGCACTGCGGCCAGGACTACAAATCCCAGCATGCAA | 781
45 | TTTCTCTTTCTGATTCCACCCTGACCACAGCCAGCT | 3020
46 | GAAAGACAGGGTGTGGGATAGATCTCAACCACCTTT | 698
47 | TCATGTCCTCTGGTGTTATTGTGTTGTGGTTTTAAG | 1570
48 | GGTTTCACTTGCTGCGTTGGGCCTTGTGGCCTCCTT | 834

Row | Sequence | RUNX1 binding intensity
49 | AGCTTGCCGTAAGCTGGTTGTTCGCTGCGGCGACCA | 723
50 | GAAGCGGCAGTCGCTGAGGGGTGGTGAAGCGGTTGG | 690
51 | ACGGACAGAATTGCCTCCCCCGTCACCACAGCGACC | 915
52 | AGCTTTTCGTCGCTCCGGCCCGCCTCGCCGCAAGGC | 915
53 | AGGGACTTTCGGTGACCAGAGCACTAGCGCCGCAAA | 857
54 | AACCAGAATAACCACAGATCAAGCCGTAAGCACATG | 1710
55 | CTTATCCCACAAGGGCACCTGGCTGGAATAATGGAG | 783
56 | GTCACGCGCCGGCTCCAACCCCCAACCACTTTAGCC | 1050
57 | GCGCTCAAGCTGCCCACAGGTCTTCAGACCTAACTT | 738
58 | GAAACCACAACCTACCCCAGCCTTACTTTCGGGCGC | 3300
59 | AGCAACCCCAGCCCCACAGCGCTTCATGAGAAGTAA | 825
60 | GAGGAAAAAGGACACAGAAACTCCGCAACTTGCGCC | 801
61 | CTGCAGCCGCGGTCTCCCGGCCGAAGCTCTTCACTT | 811
62 | CTGCTGCGGGGATCCTTGGGGCCCTTACGGTCGGTG | 727
63 | CAGCACGCAGCAAGCACATGTGGTGGGGCTCTTCCA | 750
64 | CCGCTAGCCCGCAGCGCTCGGCTCCCTGGTAATTCT | 1020
65 | CCGGGACCGCGTACTCGTCCTTCTTTGCCGTTAGTC | 902
66 | ACCGTGGTGTTCCCCCCAATGCCTTGTGGGAGTTGT | 905
67 | CTTCTGGCCGCAAGGCGCCAGCGCTCCCGGGCCCCA | 919
68 | TGGCTGTCACTTGCTGTCCCACTGTGGTTCCTGGGA | 727
69 | GGTGGGAGTGACCACAACACTTCGTGCCCTCTTCCA | 2200
70 | GGTTGGTGGTTCGATCCCACCCAGGGACGGAGGTCG | 800
71 | CTTTTGCGGCTACATGTCCCCCTTTACGGGAATCTG | 2520
72 | GAGGTGGTCAGAGCCTCCCTTGACATGAAACAAGAA | 724

Row | Sequence | RUNX1 binding intensity
73 | GCCCAGGGCGGCTGGAAGTTTGCGGGGCGGGGCGGA | 689
74 | GCACGAAACGCTTTCTTAACACTATGTGGGTGAGGT | 746
75 | TGGCTTTCTGTCTGTCCTTCATCAGCCCACAGAGGC | 830
76 | GGGCGCGACTCCCGGGGCGGCGGTTGCATCAGATTC | 744
77 | GTGGCTGTGGTTGAACTGACTCTCGGGTTTGCGCTC | 969
78 | ACATGAGGAATCTGAAGCATAGAGAGGGTGGTTAAC | 758 ± 23
79 | CACTCCCGGGTCGTCAGCTCAGTTCTGCGGTTTCTG | 4760
80 | TCTGCGGCTTTCTCTCCCCAGCCACAGCCGCCATTC | 2390
81 | TTCTGCTACATGCTGCCCACTCCCTGTGGCTTCCAC | 1070
82 | TGGCGCCTGAAAACTGGCGATGCGGGTGGGCGCGAA | 620
83 | GTTCAGCAGCCACAACAAGAGAGGCTGTGTAGTGTT | 790
84 | AGACCCTGTGGTCACATGGCAGCAAGTCTGCAGGTT | 945
85 | AGCTTGCTTTCTGTCCCCAAAACCCACAGCACACGG | 865
86 | CACTCCCCCCAGCCTCTCTTTTTAATACCACAATAG | 1830
87 | AGCCGCCACTGCCTGTCTCTGCGGGTGCATGCTCTT | 837
88 | TGCCCAGTAGTTCCTCTTGTGGGGGAGCACAACTTG | 792
89 | CGGCCGAAGGCGGACTCTCGCGGGAGCCACAAAGAG | 810
90 | GAAACAATTGCCTGTACCTCTGTGGTAAAAATGATA | 941
91 | TCGCACCTGAACCCCTTGGCGGATTATGTGGGTTCC | 777
92 | GGAGTGAACAACCGCAACAGATAGGGAATTGACACA | 2620
93 | TCAGTGTCCTCATCAGGGGCAAGGGCACCACCGCGG | 714
94 | GATGTGGTCTCGGCTGGAGCCTGCACGAAACCTCGT | 791
95 | CAGGACCGCTGTACTCCGGGTGAAGCTGAAGCGCAG | 683
96 | GACCTTCAGCGGTGGGTCCCGAAACTGGGTTTTAGG | 772

Row | Sequence | RUNX1 binding intensity
97 | AGCGGCAGTAGAGCAAGCCTTCGCGGTCCATGGCCA | 745
98 | AATCACTGACACCCACACAGCCGTTTCGTGCACTTA | 996
99 | AGGCTTCTCCCGGGCGTCTCTTTGTGGTGGCGTTGA | 834
100 | CCCCCGCCGCAGGCGCCCATCAGTGCCACTTTCGGA | 1070
101 | CAGTGGCAGTAGCGGTTTGGCCCTTCATGCCCTGGG | 878
102 | TTAAAAACCACCTGAGACTCCAGTTCCCGGCGTGCT | 729
103 | GCACGCGCCGCAGGCCGACCCCTGGAACCCTCCGGG | 798
104 | AAACGTCCTCTTTTTAGCGCGCAGGCGCCGCAGGGC | 782
105 | TGTCTTCAGGCAGTGTAGCAGGTGTTGAGGTCAAGC | 702 ± 18
106 | GCGATTGTGGTTCCCGCCGTAGTTCACGTTCCCCAT | 1100
107 | CAGCTCCGAATTCCGGGTGCGGTACGGCGAAGCAGA | 805
108 | ATAGTCTCTTTCTGTGTTGCAAACCACAGGTCCACC | 1220
109 | TGTGCATGTGGTTTTCGGGTACGTGATTGCCTCTTT | 2800
110 | TGCAATCAGGGAGCCTGCCCCTCTAGAACCACAAAA | 758
111 | TCTCGGTCTCCTAAAAAACTAAACCGCCTGGGGCTG | 996
112 | CCCCTCCCCTCAGCCGCAGGTGTTTCAGTTCGGGTG | 823
113 | AAATCACATGTCCCAGAGTGCACCGCGACGGCAGGG | 727
114 | CTCTGAAGGAATTGATGTTAGACGGCTGTGGGTGGT | 696
115 | CTTATCAACCACCAAGAGACATGTCCCCTTTGTACT | 1060
116 | CCGCCGCGACACTTTCGGCGGCCACCACAGGGTATT | 833
117 | GCTCCCTTGCTGAGCCTCTGCTGGCCTCACCACAGG | 906

Reference: the supplement of paper PMC10681739
